Measured values published in article PMC7506554.
Results are given in words; binding and its absence hold for the method and conditions named. Binding seen in cells or lysates may run through a third protein. Some results given as binding are weak or reduced against the parent protein; the word gives no strength. Sequences can lack the tags named with a protein.

Protein sequences, listed by entry. Tags and fused reporters are not part of them.
UniProt P63096: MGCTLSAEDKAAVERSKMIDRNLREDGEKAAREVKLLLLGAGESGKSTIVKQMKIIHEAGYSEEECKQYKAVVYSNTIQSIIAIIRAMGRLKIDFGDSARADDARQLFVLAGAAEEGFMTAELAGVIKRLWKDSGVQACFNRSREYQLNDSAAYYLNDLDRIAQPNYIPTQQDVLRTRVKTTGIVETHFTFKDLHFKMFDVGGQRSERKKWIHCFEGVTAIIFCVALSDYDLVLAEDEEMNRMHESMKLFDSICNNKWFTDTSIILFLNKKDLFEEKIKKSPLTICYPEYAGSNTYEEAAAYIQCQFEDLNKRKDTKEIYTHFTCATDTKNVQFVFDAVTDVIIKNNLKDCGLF
UniProt Q14344: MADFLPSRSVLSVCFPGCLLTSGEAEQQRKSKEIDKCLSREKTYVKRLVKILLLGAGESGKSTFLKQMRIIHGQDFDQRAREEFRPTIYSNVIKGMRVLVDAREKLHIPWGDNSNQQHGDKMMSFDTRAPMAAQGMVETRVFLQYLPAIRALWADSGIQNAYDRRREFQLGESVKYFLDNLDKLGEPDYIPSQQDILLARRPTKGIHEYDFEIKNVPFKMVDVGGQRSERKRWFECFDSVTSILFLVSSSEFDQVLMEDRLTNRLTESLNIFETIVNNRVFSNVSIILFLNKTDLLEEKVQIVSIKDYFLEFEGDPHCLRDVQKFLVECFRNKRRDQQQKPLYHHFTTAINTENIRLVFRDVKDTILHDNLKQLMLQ
UniProt Q03113: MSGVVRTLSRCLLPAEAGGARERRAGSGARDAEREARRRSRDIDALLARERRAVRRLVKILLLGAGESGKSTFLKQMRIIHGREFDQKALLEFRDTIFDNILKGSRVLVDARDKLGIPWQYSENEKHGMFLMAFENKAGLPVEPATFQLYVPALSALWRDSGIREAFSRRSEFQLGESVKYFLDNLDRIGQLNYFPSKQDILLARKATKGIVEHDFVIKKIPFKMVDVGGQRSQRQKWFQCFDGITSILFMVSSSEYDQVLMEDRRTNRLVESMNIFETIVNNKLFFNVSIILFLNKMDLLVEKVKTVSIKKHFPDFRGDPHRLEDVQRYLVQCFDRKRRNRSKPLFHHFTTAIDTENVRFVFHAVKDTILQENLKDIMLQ
UniProt P29992: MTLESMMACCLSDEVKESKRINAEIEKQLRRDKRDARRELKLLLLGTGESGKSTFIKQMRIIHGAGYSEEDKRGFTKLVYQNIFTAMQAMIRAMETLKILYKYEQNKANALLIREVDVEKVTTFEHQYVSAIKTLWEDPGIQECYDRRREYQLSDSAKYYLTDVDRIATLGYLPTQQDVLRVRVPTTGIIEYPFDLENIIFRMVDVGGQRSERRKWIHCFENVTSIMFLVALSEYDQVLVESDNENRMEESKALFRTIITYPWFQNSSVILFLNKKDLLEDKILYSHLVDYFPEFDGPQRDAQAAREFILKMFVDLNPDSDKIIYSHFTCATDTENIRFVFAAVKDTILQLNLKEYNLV
UniProt P50148: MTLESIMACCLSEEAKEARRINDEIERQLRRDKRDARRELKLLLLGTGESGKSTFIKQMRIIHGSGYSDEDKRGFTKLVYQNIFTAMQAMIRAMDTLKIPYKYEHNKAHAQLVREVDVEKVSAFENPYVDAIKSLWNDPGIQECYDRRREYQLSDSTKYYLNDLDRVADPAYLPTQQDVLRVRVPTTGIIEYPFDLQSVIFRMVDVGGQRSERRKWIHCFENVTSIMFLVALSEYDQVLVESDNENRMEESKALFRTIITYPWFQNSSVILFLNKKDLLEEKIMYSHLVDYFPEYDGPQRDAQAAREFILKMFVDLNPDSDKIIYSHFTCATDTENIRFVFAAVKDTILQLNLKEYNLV

Each substance was assayed against T1, FLAG-GPR101 (human G-protein coupled receptor 101) (human) (UniProt Q96P66) (assay: co-IP; HEK293 cells co-transfected with FLAG-GPR101 and HA-tagged Gα protein, serum starved overnight; lysis in 20 mM Tris-HCl pH 7.5, 100 mM NaCl, 10 mM MgCl2, 2 mM EDTA, 1% Triton-X100; 900 µg lysate precipitated with mouse anti-FLAG antibody and Protein A/G PLUS-Agarose at 4 °C; washed with PBS, 1% NP-40; blot with anti-HA antibody).
T1 sequence: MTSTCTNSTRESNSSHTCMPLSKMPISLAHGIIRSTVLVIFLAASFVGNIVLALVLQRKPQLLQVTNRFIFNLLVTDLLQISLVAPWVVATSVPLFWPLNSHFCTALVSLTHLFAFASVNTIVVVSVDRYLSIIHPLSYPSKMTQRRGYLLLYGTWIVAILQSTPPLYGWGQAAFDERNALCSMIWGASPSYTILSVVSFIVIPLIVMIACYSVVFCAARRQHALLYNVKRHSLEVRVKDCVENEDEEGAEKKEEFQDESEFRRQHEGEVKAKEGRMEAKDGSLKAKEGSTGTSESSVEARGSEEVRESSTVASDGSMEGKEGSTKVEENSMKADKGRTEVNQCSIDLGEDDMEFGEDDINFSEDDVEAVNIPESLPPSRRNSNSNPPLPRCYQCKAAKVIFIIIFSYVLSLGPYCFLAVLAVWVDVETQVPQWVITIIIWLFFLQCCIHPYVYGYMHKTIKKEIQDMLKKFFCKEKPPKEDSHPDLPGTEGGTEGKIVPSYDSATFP
For “HA-tagged Gαi1 (from UniProt P63096 1-354)”, the binding was “no binding”. For “HA-tagged Gα13 (from UniProt Q14344 1-377)”, the binding was “binds”. For “HA-tagged Gα12 (from UniProt Q03113 1-381)”, the binding was “binds”. In the case of “HA-tagged Gα11 (from UniProt P29992 1-359)”, the binding is reported as “binds”. In the case of “HA-tagged Gαq (from UniProt P50148 1-359)”, the binding is reported as “binds”.
